# Measured values taken from the RNAGym collection of RNA variant scans (doi:10.1073/pnas.2313332121).
# This sample is rich in variants without activity.
# B1: TPR 5TU (parent)
# chain: GGAUCUUCUCGAUCUAACAAAAAAGACAAAUCUGCCACAAAGCUUGAGAGCAUCUUCGGAUGCAGAGGCGGCAGCCUUCGGUGGCGCGAUAGCGCCAACGUUCUCAACUAUGACACGCAAAACGCGUGCUCCGUUGAAUGGAGUUUAUCAUG
# Variants of: B1
# Test: polymerase ribozyme fitness, log enrichment relative to wild type (log ratio); higher = more active; in vitro selection for triplet polymerase activity
# How it was run: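 PCR was used to build mutant libraries for each subunit of a heterodimeric triplet polymerase ribozyme, which were then transcribed. A single in vitro selection round, in triplicate, used a frozen incubation at −7 °C and recovered extended constructs by gel excision, streptavidin beads and RT-PCR. Fitness is the logarithm of genotype enrichment relative to wild-type enrichment, averaged over replicates with inverse-variance weights. The logarithm is base 2, and after Illumina sequencing only genotypes with ≥10 input reads and ≥1 read per output were kept.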
row,Variant,polymerase ribozyme fitness (log ratio)
1,A12U U33A C35G C57A U77C U101C U134A,≤ -4.2
2,A12G A24C A39C G50A A122U U144A U145A,≤ -4.2
3,A12U A23U C69U G83A,≤ -4.2
4,A12U A17C U44A G58A U78G C87G A106U A121U,≤ -4.2
5,A12G U53A,-0.69
6,A12U C38U G83A U101C G141U G152U,≤ -4.2
7,A12G G141C,-0.0174
8,U13A A16G G86U,-2.89
9,A12G U31G C51G U77G U82A C85A,≤ -4.2
10,A12U U13A A52C C87A G94U U134A A138U,≤ -4.2
11,A12U U111C,-4
12,A12U A24U A66C C87G G88A C116U G124U,≤ -4.2
13,A12U A47G C118G,-1.11
14,A12U A28U C32G G42C A49C G50C U145A U146G,≤ -4.2
15,A12G A21G G86U A91U U101A A106G A122G,≤ -4.2
16,A12U A52C U53A C57U G92U G124U U148A,≤ -4.2
17,A12U G50A C75U G83A G88C,≤ -4.2
18,A12G A20G A23U A89G C96U U111C G124C U130G G133C G140A,≤ -4.2
19,A12U C27A A52C G71C C105U,≤ -4.2
20,A12U C79U C93G C132G,≤ -4.2
21,A12G A40G U55A G83A U104G,≤ -4.2

row,Variant,polymerase ribozyme fitness (log ratio)
1,A12G C116G G126U,1.17
2,U13A A28U C57G C85G U127A,≤ -4.2
3,A12C U53A C125G A150U U151G,≤ -4.2
4,A12G A17G A19G C32G C51A C87A A138C,≤ -4.2
5,A12U A23G G42C A60G G68A C79G C93U G141C,≤ -4.2
6,A12U A17C A22C A142C,-2.44
7,U13A A22U A28U C36G A60U C85U C96U A115G,≤ -4.2
8,A12G G68A G83A C116U,≤ -4.2
9,A12U C18G G92C,-2.01
10,A12G U44A G46A A66C G86A C93A A97U A138G A142G,≤ -4.2
11,A12G C35U U55G C87G A115U,-4.17
12,A12U U109G,-2.25
13,A12U U53G C69G C85U A107U,≤ -4.2
14,A12G G92A U127A U139A G143A,≤ -4.2
15,A12U C54A C95U,-1.84
16,A12G A41U C85U U101G C105A G140U G152U,-4.09
17,A12G U90G G126A G140C,≤ -4.2
18,A12C U15C G42A U45G C87U U101G,≤ -4.2
19,A12G A39G U53A U56A G58C C79A C118A C149G,≤ -4.2
20,U13A A21C U56A A60G G92U U102A C114U C123U,-3.84
